# In PubChem BioAssay AID1030 (National Center for Advancing Translational Sciences (NCATS), 2008):
# Out of some 220,000 compounds screened, about 16,000 (7.3%) were called active. Inconclusive results, whose numbers are uncertain, are shown with a selection of clear calls. Calls come from the whole dose curve; as a rule, active = well fitted inhibition curve with a large enough effect (not every such curve was filed as active); inconclusive = small, poorly fitted or top-dose-only effect, or another doubt; inactive = no such curve, though single readings can be large or run the other way. No potency is given beside an inconclusive call; the fits are too rough.
# Target: Aldehyde dehydrogenase 1A1 (Homo sapiens) (UniProt P00352)
# Test: qHTS Assay for Inhibitors of Aldehyde Dehydrogenase 1 (ALDH1A1);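 for activity, negative = inhibition: plate controls were no enzyme wells and a reference inhibitor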
# Conditions: Purified ALDH1A1, NADH fluorescence, propionaldehyde substrate; series mostly up to 75.3 µM; activity, negative = inhibition: at the top concentration
# Potency is the fitted concentration of half-maximal effect; tags give direction and shape of the fitted curve.
# Chain of UniProt P00352 (P00352 whole entry, looked up): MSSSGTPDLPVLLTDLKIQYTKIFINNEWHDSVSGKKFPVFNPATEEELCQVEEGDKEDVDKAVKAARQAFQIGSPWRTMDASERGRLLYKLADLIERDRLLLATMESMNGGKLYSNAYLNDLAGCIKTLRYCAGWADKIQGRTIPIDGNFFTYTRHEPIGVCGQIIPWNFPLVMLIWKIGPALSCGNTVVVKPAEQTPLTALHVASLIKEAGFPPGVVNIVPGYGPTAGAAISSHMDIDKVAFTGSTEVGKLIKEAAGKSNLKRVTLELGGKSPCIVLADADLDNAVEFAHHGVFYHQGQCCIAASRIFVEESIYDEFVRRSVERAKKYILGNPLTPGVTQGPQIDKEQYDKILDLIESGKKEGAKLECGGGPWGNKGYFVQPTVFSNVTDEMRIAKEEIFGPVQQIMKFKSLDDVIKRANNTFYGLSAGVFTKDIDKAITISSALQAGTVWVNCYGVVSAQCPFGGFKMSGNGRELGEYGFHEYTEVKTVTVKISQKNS
SMILES,Potency,"activity, negative = inhibition"
Cc1ccnc(NC2OC(=O)c3ccccc32)c1 (stereo not drawn),"inconclusive [inhibitor, single point]",–
Cc1ccc(S(=O)(=O)N2CCCOC2CNC(=O)C(=O)NCc2ccncc2)cc1 (stereo not drawn),"inconclusive [inhibitor, single point]",–
CC(=O)Nc1ccc2c(c1)C(=O)c1ccccc1C2=O,active: 3.55 µM,–
COc1ccc(N2C(=O)CC(NCc3ccncc3)C2=O)cc1 (stereo not drawn),"inconclusive [inhibitor, single point]",–
CCCCCC(=O)Nc1ccc(-c2csc(N)n2)cc1,"inconclusive [inhibitor, single point]",–
Cn1c(NCCO)nc2c(c1=O)C1(CCCCC1)Cc1ccccc1-2,"inconclusive [inhibitor, partial curve]",–
COc1ccc(CNC(=O)C2=C(C)C(=O)OC23CCC(C)CC3)cc1 (stereo not drawn),active: 5.62 µM,–
COCCNCC1C(Oc2ccc(Cl)cc2)C(=O)N1c1ccccc1C (stereo not drawn),"inconclusive [inhibitor, single point]",–
CCc1c(C)c2ccc(OCC(=O)N(C)C)c(C)c2oc1=O,"inconclusive [inhibitor, partial curve]",–
CCOC(=O)N1CCN(C(=O)CS(=O)(=O)c2cn(Cc3ccccc3Cl)c3ccccc23)CC1,"inconclusive [inhibitor, single point]",–
CC(C)C(=O)Nc1ccccc1C(=O)OCC(=O)c1ccc2c(c1)OCCO2,–,inactive: -1.52%
COc1ccc2c(C(=O)CN3CCSCC3)c[nH]c2c1,active: 28.2 µM,–
Cc1cc(C2CCCCC2)n(O)c(=O)c1,inactive,–
CC(=O)N1CCC2(CC1)CCN(C(=O)Nc1cccc(C#N)c1)CC2,–,inactive: -2.77%
COc1ccc(-c2cn3c(C)c(C(=O)Nc4cccc(C)n4)sc3n2)cc1,"inconclusive [inhibitor, single point]",–
Oc1ccccc1N=Cc1sc2ccccc2c1Cl,"inconclusive [inhibitor, partial curve]",–
COC(=O)C1CCCCN1C(=O)CCc1nnc(CCc2c[nH]c3ccccc23)o1 (stereo not drawn),active: 22.4 µM,–
Cc1ccc2oc(=O)c3cnn(CC(=O)N4CCN(c5ccccn5)CC4)c3c2c1,"inconclusive [inhibitor, partial curve]",–
O=C(Nc1ccc(N2CCN(C(=O)c3ccccc3)CC2)cc1)c1ccc([N+](=O)[O-])o1,active: 11.2 µM,–
S=C(NCc1ccncc1)Nc1ccc(Cl)cc1,–,inactive: 16.5%
CC1=NN(Cc2c(C)nn(Cc3ccccc3)c2C)C(C)(C)C1,–,inactive: 0.944%
CCN1C(=C(C#N)C#N)C=Cc2ccccc21,"inconclusive [inhibitor, single point]",–
O=C(NNC(=O)c1cc(-c2ccc(Cl)cc2Cl)nc2ccccc12)Nc1ccccc1,–,inactive: 2.5%
CC(=O)Nc1ccc(C(=O)N/N=C/C2CC3C=CC2C3)cc1 (stereo not drawn),–,inactive: 0.557%

SMILES,Potency,"activity, negative = inhibition"
COc1ccc(-c2cc(C(=O)NNC(=S)NC(=O)c3c(-c4ccccc4)noc3C)[nH]n2)cc1,–,inactive: -12.5%
CCOC(=O)CCNC(=O)Nc1ccc2nc(C)n(Cc3ccc(Cl)cc3)c(=O)c2c1,"inconclusive [inhibitor, single point]",–
CCN(CC)CCOC(=O)/C=C/c1ccccc1OC,"inconclusive [inhibitor, single point]",–
O=C(Nc1nc2n(n1)C(c1ccccc1)CC(c1ccc(Cl)cc1)N2)c1ccco1 (stereo not drawn),"inconclusive [inhibitor, single point]",–
Cc1csc(/C(=N\O)c2csc(C)n2)n1,–,inactive: 16.4%
CC(NC(=O)Nc1ccccc1)C(c1cccs1)N1CCN(c2ccccc2)CC1 (stereo not drawn),"inconclusive [inhibitor, partial curve]",–
CCOC(=O)/C(N=O)=C(\O)C1CCN(C(=O)OCC)CC1,"inconclusive [inhibitor, single point]",–
CC(=O)N(c1nc(CCl)cs1)c1c(C)cc(C)cc1C,–,inactive: 2.17%
O=C(OCc1c(Cl)cccc1Cl)c1ccncc1,–,inactive: -2.62%
CNC(=O)c1sccc1SCc1c(Cl)cccc1Cl,–,inactive: -0.321%
Cc1cccc2sc(NC(=O)CN3C(=O)C4CC=CCC4C3=O)nc12 (stereo not drawn),"inconclusive [inhibitor, single point]",–
Brc1ccc(CSc2nnc(-c3ccco3)o2)cc1,–,inactive: -6.15%
CCCC(C)NC(=O)COc1ccc(S(=O)(=O)c2ccc(OCC(=O)NC(C)CCC)cc2)cc1 (stereo not drawn),"inconclusive [inhibitor, single point]",–
C=C1C(=O)[C@]23[C@H](O)[C@H]1CC[C@H]2[C@@]12COC3(O)[C@H](O)[C@@H]1C(C)(C)CC[C@@H]2O,–,inactive: 8.79%
O=S(=O)(c1ccccc1)N1CCC2(CC1)CN(c1ccccc1)C2,active: 14.1 µM,–
Cc1ccc(S(=O)(=O)N2CCC(=O)N(C(COCc3ccc(Cl)cc3)Cc3ccccc3)CC2)cc1 (stereo not drawn),"inconclusive [inhibitor, full curve]",–
Cc1ccc(OCCN2C(=O)OC(C)(C)C2(C)O)cc1 (stereo not drawn),"inconclusive [inhibitor, single point]",–
CC(C)C(=O)c1cn(CC(=O)NCc2ccc3c(c2)OCO3)c2ccccc12,"inconclusive [inhibitor, full curve, poor fit]",–
Cc1nc(SCC(=O)N2CCc3ccccc3C2)c2c(C)c(C)sc2n1,"inconclusive [inhibitor, single point]",–
Cc1ccc(C2=Nc3ccccc3S[C@@H](c3cccc([N+](=O)[O-])c3)C2)cc1,–,inactive: -11.7% [at 13.5 µM]
Cc1cc(=O)[nH]c(SCC(=O)Nc2ccnc3ccccc23)n1,"inconclusive [inhibitor, single point]",–
CCOC(=O)C1(Cc2ccccc2C)CCCN(C(=O)c2ccccn2)C1 (stereo not drawn),"inconclusive [inhibitor, single point]",–
CS(=O)(=O)N1CCC2(CC1)CN(C(=O)Nc1cccc(F)c1)C2,–,inactive: 7.16%
O=[N+]([O-])c1cccc(C(=Nc2ccccc2Cl)NO)c1,"inconclusive [inhibitor, single point]",–
